Binding signal data for 42 sequences are collected here from paper PMC7819943, “Rice protein-binding microarrays: a tool to detect cis-acting elements near promoter regions in rice”.

Some of the results follow.

The target of the test is T1, OsWOX13 (Oryza sativa, UniProt Q5QMM3 1-267).
T1 sequence: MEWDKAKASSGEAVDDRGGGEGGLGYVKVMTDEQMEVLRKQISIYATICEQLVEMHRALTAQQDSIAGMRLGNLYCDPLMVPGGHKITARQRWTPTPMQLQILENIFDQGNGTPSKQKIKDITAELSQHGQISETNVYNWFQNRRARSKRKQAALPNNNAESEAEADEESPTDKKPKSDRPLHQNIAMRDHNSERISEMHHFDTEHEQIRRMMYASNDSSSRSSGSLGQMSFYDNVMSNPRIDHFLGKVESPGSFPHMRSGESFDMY
Kind of test: protein-binding microarray (RPBM); PBS, 2% BSA, 51.3 ng/ul salmon testes DNA, 50 uM zinc acetate, 200 nM TF, 25 C, 1 h; high values mean tight binding. The following applies: protein: recombinant; tags: N-terminal polyhistidine and DsRed monomer fusion (pET32a); label: CyDye5-dUTP incorporated in the synthesized complementary strand; 3' TTTTT single-stranded linker to array surface; dsDNA, one strand shown. The gist of the method: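 An Axon 4000B scanner gave the binding signal as per-feature fluorescence intensity in arbitrary units. This followed washing of a custom Agilent array that had been incubated for 1 h at 25 °C with 200 nM protein in PBS, 2% BSA, salmon testes DNA and 50 µM zinc acetate. The proteins were transcription factors fused at the N-terminus to polyhistidine and DsRed, expressed in E. coli BL21-CodonPlus and purified on Ni–NTA.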
For the sequence “TCAAACATAACAAATTTTGTCACTAAACTACCTATACTATCGGAGTCACCTAGTGCAG”, the binding signal is 6460 fluorescence intensity (a.u.). The result for “TTAATACTCATCTAATTTATAATTTGATTAAACCATTATTCGGAGTCACCTAGTGCAG” reads 14700 fluorescence intensity (a.u.). Regarding “GAAGAATGTAGATGAACAACTGATTATCCCAAGTTTTGTTCGGAGTCACCTAGTGCAG”, the binding signal was 3610 fluorescence intensity (a.u.). “ATCCATAATTAACCTATGTGATGCTACAGTAAATATTTGTCGGAGTCACCTAGTGCAG”: the binding signal is 8520 fluorescence intensity (a.u.). “TTTCGATTGATTTTGCCTCCTGAAGCGTTGTCTAGCTTTTCGGAGTCACCTAGTGCAG”: the binding signal is 21600 fluorescence intensity (a.u.). In the case of “TCTAATGGAAGCCTTGACAAACACCTTTTCGGTATGATAACGGAGTCACCTAGTGCAG” it was 3940 fluorescence intensity (a.u.).

Consider “AACTTAACAGGACCAATGAAATTTAACAATATGAAAGCTCCGGAGTCACCTAGTGCAG”, for which the binding signal is 8820 fluorescence intensity (a.u.).

In the case of “GTGACATATATCTGCCTGATTGATTAATCGGATGGACGATCGGAGTCACCTAGTGCAG”, the binding signal is 51600 fluorescence intensity (a.u.). As to “TTAATTTACCGGATTCAATATTCCATATTTAGAAGTCACCCGGAGTCACCTAGTGCAG”, the binding signal was 3350 fluorescence intensity (a.u.). In the case of “TATAACTAAAATTAAAATTACATTTGTAAGTTCAGTTGATCGGAGTCACCTAGTGCAG” it was 16000 fluorescence intensity (a.u.); in that of “GAGGGCAAATAAGTAATTATCTCGGAATCCAAGATTATGTCGGAGTCACCTAGTGCAG”, 3730 fluorescence intensity (a.u.); in that of “TGAACTGATTGGTCAGGAGGTAGTTACCAACGACTGAAATCGGAGTCACCTAGTGCAG”, 11500 fluorescence intensity (a.u.).

In the case of “CATACAAATCATTACCCTAATTAACTTACTTATTTAAGATCGGAGTCACCTAGTGCAG”, the binding signal was 21400 fluorescence intensity (a.u.). “TTCTGGTGAGAGTAATTAATTAGCTAGCTGGGTGAACAGTCGGAGTCACCTAGTGCAG”: the binding signal is 8520 fluorescence intensity (a.u.). In the case of “TTTTGCATTAATTTGATCAAAGCAGTTGTATTGTTGTGAACGGAGTCACCTAGTGCAG”, the binding signal was 6720 fluorescence intensity (a.u.). “GACGGAGATTGAACTCGAGCTTCTGCGCAAGAACGGTGCGCGGAGTCACCTAGTGCAG”: the binding signal was 6290 fluorescence intensity (a.u.). The result for “GGAGAGAGATTAGCACATTGATGGTTGTAATTTCCATTTTCGGAGTCACCTAGTGCAG” reads 5320 fluorescence intensity (a.u.); that for “TATCAAGATATGTCAATCTAATCTTTTGGAGATGTTTATACGGAGTCACCTAGTGCAG”, 5860 fluorescence intensity (a.u.); that for “AGTAATTTGTTTGGTTGAACCTGGTGGTGAGTCCAAAAGGCGGAGTCACCTAGTGCAG”, 5690 fluorescence intensity (a.u.). For the sequence “CAAATATAATTATAGTATAATCATGATGTAATTATACTATCGGAGTCACCTAGTGCAG”, the binding signal was 33100 fluorescence intensity (a.u.). In the case of “TGTAATAATGGAATAAACAAATGCTCACCAAATTAAGTCTCGGAGTCACCTAGTGCAG” it was 5400 fluorescence intensity (a.u.); in that of “GAAACACCATAATGGACACTAAATTACCATATCTTCAAGACGGAGTCACCTAGTGCAG”, 8190 fluorescence intensity (a.u.); in that of “GCTAATGTACGGTGTATATATGATTGCCTTCTCGATTTTGCGGAGTCACCTAGTGCAG”, 7490 fluorescence intensity (a.u.). In the case of “ATGAACAACAATTGATTTTGTTACTATATTCCAGCCAATTCGGAGTCACCTAGTGCAG” it was 5300 fluorescence intensity (a.u.); in that of “CGATTAATTAGAATGCAGGTAATCGAAGTTATACGAAAATCGGAGTCACCTAGTGCAG”, 7310 fluorescence intensity (a.u.). In the case of “TTTAAATTGAAACGCATAGTAATATTTAGGGCCCGAGCCTCGGAGTCACCTAGTGCAG” it was 30100 fluorescence intensity (a.u.). For the sequence “AAAATAATTAAAATAGTACGAGTAGATTCACACAAGATCTCGGAGTCACCTAGTGCAG”, the binding signal was 8260 fluorescence intensity (a.u.). On to “ACATTGATTAATACGAAATATATCACTCCACAAACATACGCGGAGTCACCTAGTGCAG”, for which the binding signal was 36000 fluorescence intensity (a.u.). Turning to “GCGGTGGTGGTGGGCTTAGTGGAGGCGGAGGCGGCTGAGGCGGAGTCACCTAGTGCAG”, the binding signal was 3750 fluorescence intensity (a.u.). “GTTAAAATGGACCGAAATTTTCAACTAAATTCCTGGCCCACGGAGTCACCTAGTGCAG”: the binding signal is 5200 fluorescence intensity (a.u.). Turning to “TCACATAATTACATCCAGGTCCTCGAGCACGCGACACGGACGGAGTCACCTAGTGCAG”, the binding signal is 15100 fluorescence intensity (a.u.).

As to “AAACTCCAATCAAGACCTCTGTGGATGGGCATCCGATGGACGGAGTCACCTAGTGCAG”, the binding signal was 7350 fluorescence intensity (a.u.).

As for “CGTAAACTAACAGTTAAACACCCCTATAAAACAGGCGCCCCGGAGTCACCTAGTGCAG”, the binding signal is 5660 fluorescence intensity (a.u.). As to “AACTAACAAATTGGCATGGAAACACTAGTATTTTCTAAAGCGGAGTCACCTAGTGCAG”, the binding signal is 15500 fluorescence intensity (a.u.).

As for “AGTGAATTGTCACTTTCTATAGATTGCAACAAAATGAGTACGGAGTCACCTAGTGCAG”, the binding signal was 3200 fluorescence intensity (a.u.). As to “ACCCTTTGACACTGTTCTTCCTCTCTCTCTCTTCTTTTCTCGGAGTCACCTAGTGCAG”, the binding signal was 3230 fluorescence intensity (a.u.). For the sequence “GCCCGCCGCGCCAATCAACCGCCGTCGGCCACCGGAAAGCCGGAGTCACCTAGTGCAG”, the binding signal is 3920 fluorescence intensity (a.u.).

Turning to “AATAATTAGAAGAAATTGTGAGCGTGTTGAGAATTTAGGGCGGAGTCACCTAGTGCAG”, the binding signal is 26400 fluorescence intensity (a.u.). Regarding “GTTCATTACCCCTGTGATTAGTCGCTAACTAAGGTGTCGGCGGAGTCACCTAGTGCAG”, the binding signal was 17800 fluorescence intensity (a.u.). For the sequence “AAACTGTCCATGTCCAAGCTCCACAACAAGATACTTGCAACGGAGTCACCTAGTGCAG”, the binding signal was 8270 fluorescence intensity (a.u.). As to “TTTGTAGAGTTAATAGATAGACTAGAAACTTAAAGTAGCCCGGAGTCACCTAGTGCAG”, the binding signal was 4670 fluorescence intensity (a.u.). Consider “TCGTTGGTGGGTAGGTGGTGGAGATGGTGGTGGCGGCGGGCGGAGTCACCTAGTGCAG”, for which the binding signal was 4870 fluorescence intensity (a.u.).
